Among all 110,000 compounds or so, about 230 (0.21%) showed an effect of 50% or more. This is one part of the list.
molecular target: DPAP1 (Plasmodium falciparum, UniProt Q8IIJ9); assay: primary screen, percent inhibition; read by cleavage of a fluorogenic dipeptide substrate; higher = more effect of the substance; design: species or system P. falciparum D10 trophozoite lysates; single well
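Note: 30 min substrate incubation versus DMSO and 10 µM JCP410 controls.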

DPAP1, sequence (Q8IIJ9 whole entry, looked up): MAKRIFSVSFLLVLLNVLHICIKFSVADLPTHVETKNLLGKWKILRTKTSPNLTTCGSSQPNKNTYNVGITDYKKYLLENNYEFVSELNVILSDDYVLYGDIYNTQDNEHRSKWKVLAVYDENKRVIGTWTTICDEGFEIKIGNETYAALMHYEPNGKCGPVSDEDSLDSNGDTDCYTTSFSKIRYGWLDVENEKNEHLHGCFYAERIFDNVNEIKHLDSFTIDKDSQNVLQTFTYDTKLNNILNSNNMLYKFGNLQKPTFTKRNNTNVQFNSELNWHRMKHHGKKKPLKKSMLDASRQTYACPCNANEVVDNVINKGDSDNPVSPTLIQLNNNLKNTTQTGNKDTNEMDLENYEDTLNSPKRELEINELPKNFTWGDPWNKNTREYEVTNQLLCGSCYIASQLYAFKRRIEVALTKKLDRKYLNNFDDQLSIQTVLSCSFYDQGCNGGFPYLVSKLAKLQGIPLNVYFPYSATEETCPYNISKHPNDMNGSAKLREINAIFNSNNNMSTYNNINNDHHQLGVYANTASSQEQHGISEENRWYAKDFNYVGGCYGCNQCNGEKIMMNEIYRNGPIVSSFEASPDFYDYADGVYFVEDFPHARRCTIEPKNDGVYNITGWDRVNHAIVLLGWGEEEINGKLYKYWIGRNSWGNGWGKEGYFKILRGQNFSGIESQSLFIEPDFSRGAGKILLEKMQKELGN

SMILES | % Inhibition @ 10 uM
OC1CCN(Cc2cccc(Cl)c2Cl)C1 (centres unmarked) | -5.31%
CCc1nnc2c(NCCc3ccc(Cl)cc3)nc3ccccc3n12 | -1.59%
O=C(COc1ccccc1)Nc1ccc(S(=O)(=O)N2CCCCCC2)cc1 | -11.1%
COc1ccc(S(=O)(=O)N2CCN(c3ccc4nnc(-c5ccc(F)cc5)n4n3)CC2)cc1 | -3.08%
CC(C)C[C@H](NC(=O)OCc1ccc(Br)cc1)C(=O)NCC#N | 3.19%
O=C(Nc1ccc(S(=O)(=O)NC2CCCCC2)cc1)C(F)(F)F | 0.528%
O=C1C(Cl)=C(Nc2cccc(Cl)c2)C(=O)N1c1ccccc1 | 8.79%
CC(C)(C)NC(=O)CN(Cc1ccccc1)S(=O)(=O)c1ccc(Br)cc1 | 0.324%
COc1cc(CN2CCN(c3ccc(Cl)cc3)CC2)ccc1O | 2.47%
CC[C@H](NC(=O)[C@H](CC1CCCCC1)/N=C(\C)NS(=O)(=O)c1ccccc1)C(=O)c1nc2ccccc2o1 | 3.1%
CCS(=O)(=O)NCc1cn2ccsc2n1 | 0.953%
O=c1cc(CO)oc(CN2CCN(c3ccccn3)CC2)c1O | 0.221%
CNCC(=O)N1CCc2cc(OC)c(OC)cc2C1C (centres unmarked) | -2.58%
Cc1cccc(NC(=O)C23CC4CC(CC(C4)C2)C3)n1 | -1.28%
CCCn1c(-c2ccc(S(=O)(=O)N(C)C)cc2)cs/c1=N\c1ccccc1 | 0.324%
CCCc1cc(O)n2c(n1)nc1ccccc12 | 0.221%
Cc1nc2ccn(Cc3cccnc3)c(=O)c2cc1C(=O)NCCCc1ccccc1 | -0.835%
CCCOc1ccc2oc(=O)c3c(c2c1)CCCN3C(=O)CN1CCN(c2ncccn2)CC1 | 11.4%
Cc1cccc(OCC(=O)Nc2ccc(C(C)C)cc2)c1 | 0.247%
O=C(Nc1ccc2nc(SCC(=O)N3CCOCC3)sc2c1)c1ccc(Cl)cc1Cl | -2.07%
CC(C)(C)C(CN1CCCC1)OC(=O)c1ccccc1 (centres unmarked) | -2.63%
O=C(CSc1nc2ccccc2[nH]1)NCCC12CC3CC(CC(C3)C1)C2 | 0.563%
O=S(=O)(c1ccc(S(=O)(=O)N(Cc2ccc(F)cc2)CC2CCCO2)cc1)N1CCCCC1 (centres unmarked) | 6.7%
CC(C)(C)N(Cc1ccc([N+](=O)[O-])cc1)C(=O)c1ccc([N+](=O)[O-])cc1 | 4.93%
CC(CC(NC(=O)OCc1ccccc1)C(=O)NCC#N)c1ccccc1 (centres unmarked) | -1.41%
O=[N+]([O-])c1ccccc1/C=C/CN(CCc1ccccc1)Cc1ccccc1 | -5.26%

SMILES | % Inhibition @ 10 uM
CC(C)=NOC(=O)CCS(=O)(=O)c1nc(-c2cccs2)cc(C(F)(F)F)n1 | -0.631%
NC(=O)c1c(N)sc2c1CCCCCCCCCC2 | -0.0619%
O=C(Cn1cc(SCc2cccc(C(F)(F)F)c2)c2ccccc21)N1CCOCC1 | 0.0147%
N#CC1=C(N)OC2=C(C(=O)CCC2)C1c1cccc(Cl)c1 (centres unmarked) | -1.44%
C=CCn1c(Cc2c(C)[nH]c3ccccc23)nnc1SCC(=O)NC12CC3CC(CC(C3)C1)C2 | 0.238%
CC(C)C[C@H](NC(=O)OCc1ccccc1)C(=O)NC1CCOC1O (some centres unmarked) | 5.05%
COc1ccc(C2C=C(c3ccc(Br)cc3)N=C(S)N2)cc1 (centres unmarked) | 1.54%
Cc1nc2cc(NS(=O)(=O)c3cccc4cccnc34)ccc2s1 | -0.624%
Fc1ccc(C2=CCN(Cc3ccc(-c4ccc(Cl)cc4)o3)CC2)cc1 | 1.57%
Cc1ccc(C(=O)CCNc2ccc(Br)cc2)o1 | -7.34%
CCc1ccc(Oc2nc3c(C)cccn3c(=O)c2/C=C(\C#N)C(=O)NCc2ccco2)cc1 | -3.23%
CCCCC(NC(=O)c1ccc(F)cc1)c1nc2ccccc2[nH]1 (centres unmarked) | 6.64%
Fc1ccc(N2CCN(C3CCSC3)CC2)cc1 (centres unmarked) | -3.6%
Cc1nc2c3cc(F)ccc3n(C)c2s1 | 3.73%
CCCCc1c(O)nc2ccc(C)cc2c1C | 1%
COc1ccc(-c2nnc(-c3ccc(Cl)cc3)o2)cc1OC | -0.833%
CC(=O)C1=C(C)NC(=O)NC1c1cc(Br)ccc1OCC#N (centres unmarked) | -4.76%
CCOc1ccc2nc(NC(=O)C3CCCN(S(=O)(=O)c4c(C)nc(O)nc4O)C3)sc2c1 (centres unmarked) | -0.0508%
CC(CCN(C)C)OC(=O)c1ccc(C(C)c2ccccc2)o1 (centres unmarked) | 2.3%
COC(=O)c1cnc2c(C(F)(F)F)cccc2c1OC | -7.35%
Cc1ccc(CSCc2ccc(C(=O)NC3CCCC3)o2)cc1 | 6.86%
COc1ccc(CC(=O)Nc2ccc(S(N)(=O)=O)cc2)cc1 | 1.94%
CC(C)CNc1ncnc2sc3c(c12)CCCC3 | 13.5%
OC1CCN(CC(O)CC(O)(c2ccc(Cl)cc2)c2ccc(Cl)cc2)CC1 (centres unmarked) | 2.02%
CCOc1ccccc1/C=C1\N=C(c2ccco2)OC1=O | 7.28%
O=S(=O)(c1ccc(OCCn2cnnn2)cc1)N1CCOCC1 | -5.96%

SMILES | % Inhibition @ 10 uM
COc1cc(CN2CCC(C)CC2)ccc1OCc1ccccc1 | -5.26%
N#Cc1c(SCc2ccccc2)nc(N2CCOCC2)c2c1CCCC2 | -2.87%
Cc1ccc(OCCCCN2CCOCC2)cc1C | -9.96%
Clc1ccc(CCC2CCNCC2)cc1 | -3.75%
Cc1cccc(-c2noc(CN(C(=O)COc3ccc(Br)c(C)c3)C(C)C)n2)c1 | -0.0593%
O=C(O)c1[nH]c2ccccc2c1CNC1CCCCCC1 | 1.93%
COc1ccc(C(=O)N2CCN(Cc3ccc(OC)c(OC)c3OC)CC2)cc1OC | 0.218%
O=C(/C=C/c1ccccc1Cl)Nc1ccc2c(c1)OCO2 | -3.94%
CCOC(=O)c1oc2ccc3nc(N(C)C)sc3c2c1C | -1.37%
O=C(O)CSc1cc(Cl)ccc1Cl | 6.15%
N#Cc1c(N)nc2c(c1-c1ccc(F)cc1)CCCCC2 | 6.66%
CSc1ccc(NC(=O)N2CC(C)C(c3ccc(SC)cc3)=N2)cc1 (centres unmarked) | -3.46%
COc1ccc2cc(S(=O)(=O)N3CCN(C)CC3)ccc2c1 | 19.4%
O=C(Cc1csc(Nc2nc(S)nc3ccccc23)n1)NCCc1ccc(Cl)cc1 | 8.5%
COc1ccccc1-n1c(CNC(=O)c2ccccc2)nnc1SCC(=O)Nc1nnc(C)s1 | -1.3%
CCCCO/C(O)=C1\C(C)=NC2=C(C(=O)CCC2)C1c1cccc(OC)c1 (centres unmarked) | 0.736%
CCC(C)NC(=O)CCn1c(=O)c2cccn2c2cccnc21 (centres unmarked) | -4.51%
CN1CCN(CCCNC(=O)c2ccc3c(Cl)c4c(nc3c2)CCCC4)CC1 | -0.0593%
CCC1(C)OC(=O)N(CCc2c(C)[nH]c3ccccc23)C1(C)O (centres unmarked) | -5.87%
CCOC(=O)c1cc(C)n(-c2ccc(C(=O)NCc3ccc(Cl)cc3)cc2)c1C | -1.41%
CC(NC(=O)NC(C(F)(F)F)C(F)(F)F)c1ccccc1 (centres unmarked) | -2.44%
O=C(/C=C/c1cccc(Cl)c1)c1ccccn1 | 0.135%
CN(CC1CCCCC1)CC(O)c1ccccc1 (centres unmarked) | -1.41%
c1cc(-c2nc3cc4sc(-c5cc[nH]n5)nc4cc3s2)[nH]n1 | 33.3%
O=C(NCC1CCCO1)C1CCN(c2nnc(-n3cccc3)s2)CC1 (centres unmarked) | -2.25%
CCOC(=O)C1=CN(C)C=C(C(=O)OCC)C1c1cccc(OCC)c1 | 1.86%

SMILES | % Inhibition @ 10 uM
CC(=O)N1CCC(N(CCCOC(C)C)S(=O)(=O)c2ccc(C(C)(C)C)cc2)CC1 | 3.66%
O=C(O)c1cc(-c2cccs2)nc2cc3c(cc12)OCCO3 | -0.0508%
CCOc1cc(C2c3c(-c4ccccc4O)n[nH]c3C(=O)N2Cc2ccco2)ccc1O (centres unmarked) | 52.6%
N#Cc1nc2c(-c3nc4ccccc4s3)c(N)n(-c3ccc(Cl)cc3)c2nc1C#N | -1.81%
O=C(c1cccs1)n1nc(-c2ccccc2)nc1NCc1ccccc1Cl | -2.91%
Nc1c(C(=O)Nc2cnc3ccccc3c2)sc2nc3c(cc12)CCCCC3 | 3.21%
NC(=O)c1cc2cc(Br)ccc2oc1=O | 5.29%
Cc1cc(C)c(C#N)c(SCC(N)=O)n1 | 27.9%
C#CCSc1nc2c(c(=O)n1-c1ccc(C)cc1)C1(CCCCC1)Cc1ccccc1-2 | -1.99%
CCCCNC(=O)C1CCCN(c2nnc(C)c3c(C)n(-c4ccc(C)cc4)nc23)C1 (centres unmarked) | 3.74%
COc1cc(C)c(CNc2ccccc2F)cc1C | -2.02%
NC(=O)COc1ccc(C2c3c(oc4ccccc4c3=O)C(=O)N2Cc2ccc3c(c2)OCO3)cc1 (centres unmarked) | -1.33%
Cc1ccc(Cl)cc1NC(=O)CC1S/C(=N\c2ccccc2)N(C)C1=O (centres unmarked) | 4.56%
COc1ccc(Cn2c(=O)c(C#N)cc3c(=O)n4cccc(C)c4nc32)cc1 | 2.54%
CCc1nc(S)c(C#N)c(C(F)(F)F)c1C | 74.2%
Cc1cccc(OCCCCN2CCOCC2)c1C | -4.08%
O=[N+]([O-])c1ccccc1CSc1nc2ccccc2[nH]1 | 6.43%
Cc1ccc(S(=O)(=O)N2CCCN(S(=O)(=O)c3ccc(C)c(C)c3)CC2)cc1C | 22.6%
COc1ccc(CCC(=O)Nc2nc(-c3ccccc3)cs2)cc1 | -0.766%
COc1cccc(NC(=O)c2ccc(OC)c(OC)c2)c1 | -1.25%
COc1ccccc1N1CCN(Cc2ccc(F)cc2)CC1 | -3.72%
CCCCOc1ccc(C(=O)Nc2cccc(C(=O)OCC(=O)c3ccccc3)c2)cc1 | -1.77%
CCC(C)NC(=O)Cn1cccc1C(=O)c1ccccc1 (centres unmarked) | 4.33%
